This is an account of results in the supplement of paper PMC11417369.

This is one part of the list.

The test system of the test is PfAP2-HC AP2 domain (GST-tagged). The test is described as follows: gcPBM binding intensity (ln(normalized median fluorescence intensity)); higher = stronger DNA binding. The procedure, abridged:
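Each value is the highest Masliner-normalised natural-log median intensity across replicate spots of either orientation of a probe. The probes were primer-extended double-stranded 36-bp intergenic genomic sequences on an Agilent 4 × 180k array, alongside negative controls, exposed for 1 h to GST-tagged P. falciparum DNA-binding domains expressed in E. coli. Bound protein was picked up with Alexa488 anti-GST antibody and scanned at 488 nm.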
In the case of “TAAAATAAAACAAACACACACACACCCCCACAAAAA [CACACA_site3850]”, the “gcPBM binding intensity (ln)” value was 10.8. The same measure for “TTTATTATTTTTTGTAGTACTTTATATAAAAGTTCT [XGTACX_site4494]”: 9.39. As to “ATACACTTTTATATATCAATACATTATGTATTAAGT [CACACA_negctrl_site421]”, the “gcPBM binding intensity (ln)” value turned out to be 9.73.

As to “TTGATTATAATTAGTACACACAAAATACATGCGGGG [CACACA_site2277]”, the “gcPBM binding intensity (ln)” value was 9.97. Consider “AAATATATAATACATATGTAATATGCATATATATAT [GTGCAC_negctrl_site450]”, for which the “gcPBM binding intensity (ln)” value was 9.72. The value for “TTTTTATTACTTCTCTGTACTCAGGAAAATAAATAT [XGTACX_site2092]” was 9.49; that for “TGAATGTAAGAAAATACACACTAGTATAGTAACACC [CACACA_site5131]” was 10.1. The value for “TTTCGTAAACAAATTTGTACGTACAAATTTATAAAT [XGTACX_site8175]” was 9.49; that for “TTTTTACTAATAAGATGTACATATATCCTAAGCATA [XGTACX_site251]” was 9.42; that for “TACATACATACATACACACATACATATATATATATA [CACACA_site1387]” was 9.97. In the case of “TCTTTTATTAGTAAAAGTACTTATATAAATATTATA [XGTACX_site5099]”, the “gcPBM binding intensity (ln)” value worked out at 9.48. In the case of “ATAATATAATAAACGTGTACACAATTAAATTATTAT [XGTACX_site3491]”, the “gcPBM binding intensity (ln)” value turned out to be 9.85. The value for “TGTTTTTTATTTAATTGTACGAATTAAAAAAAATAA [XGTACX_site3009]” was 9.1; that for AATATTCATATGCAGGTGCATTAATTTTTATTAATT was 9.65; that for “TTCCAACCATAGTATTCACACATTGTTTTATTCCAT [CACACA_site4927]” was 9.91. Turning to “AATACTCTATTTTATAGTACATATATTATTAATCAC [XGTACX_site6622]”, the “gcPBM binding intensity (ln)” value worked out at 9.73. As for “GAAAAAAAAAAAAATACACACAAATTGGTATATAAT [CACACA_site4369]”, the “gcPBM binding intensity (ln)” value was 9.92. The same measure for “TATCAAATCCAAAGGGGTACATTTTGTTGTCCTAAT [XGTACX_site5575]”: 9.48; for “TAGCTCGTTCGGAGCACACACATATAAATAAATATA [CACACA_site7002]”: 9.71; for “ATAGACAGCGCACAAACACACAAACACGCACGCACA [CACACA_site6349]”: 10.2.

For the sequence “TAGGGATTATACCACACACACATACCCATAAATATA [CACACA_site5719]”, the “gcPBM binding intensity (ln)” value was 10.4. The value for “TATTAACAAAATTTTTAACACACAAAAAAAAAAAAA [CACACA_site8542]” was 9.59; that for “CATAATATATTTTATGCATGCAAAGCAACCTTTTGA [TGCATGCA_site715]” was 9.55. In the case of TTTTTTGTTATATTTGTGCGCAAAAATTGCTGCTTG, the “gcPBM binding intensity (ln)” value was 9.63. Consider “AAAATTTATGTAAAATGTACATACATAAATAAAGAT [XGTACX_site4339]”, for which the “gcPBM binding intensity (ln)” value was determined as 9.9. The value for “TTTGTAAAATAATATCTTTCATGTCCTTACTAATTA [GTGCAC_negctrl_site145]” was 9.63; that for “TATTTATTTAAAGGCACACATATTTTTATACTTTCT [CACACA_site3163]” was 9.79; that for “ATTATATATATATATAAACACACATAAATATAAATA [CACACA_site8291]” was 9.92. The same measure for “AAAAAAGAAAAGAAATCATGAAAGAATCAAATAAAG [CACACA_negctrl_site1771]”: 9.67; for “CAAATTTTTTATTAAACACACAAACATATATTTATA [CACACA_site6992]”: 9.62.

Regarding “TTTTTATATATATTCTCACACACTTTTTATTTTAAC [CACACA_site657]”, the “gcPBM binding intensity (ln)” value is 9.91. The value for “TAAGGAAAAAATTATAGTACATAATAAATGTATATA [XGTACX_site8328]” was 9.67; that for “ATAAATATATTTCACGCACACACACCCCAAATAAAT [CACACA_site9272]” was 10.4. Regarding “AATTTTTTTTTTTTTTTTTCTTTTGTAATAAACCAT [XGTACX_negctrl_site334]”, the “gcPBM binding intensity (ln)” value was 9.36. For the sequence “TTCAGCATAAACACTTGTACATATATACTAAAAATT [XGTACX_site7272]”, the “gcPBM binding intensity (ln)” value is 9.57. The value for “AAAAAAAAAAAACACACACACACACCGAAATATATA [CACACA_site4261]” was 10.6; that for “CGTTGTAGGGAATGTAGTACAGTTATTATTTTATTA [XGTACX_site2429]” was 9.66.

In the case of “TCATACATTTTCAGCCTGCACTTATATTTAATAATA [GTGCAC_site9863]”, the “gcPBM binding intensity (ln)” value amounted to 9.64. Consider “TATATATATAAATACACACACACACCGATATATATA [CACACA_site5408]”, for which the “gcPBM binding intensity (ln)” value is 10.5.

On to “ATATATATATATTATACACACGCCGAAAAAATAAAA [CACACA_site1551]”, for which the “gcPBM binding intensity (ln)” value came out at 9.88. For “TTTATTTTATCTAAAAGTACTTAAATTAGTGTATTT [XGTACX_site5696]”, the “gcPBM binding intensity (ln)” value came out at 9.53. Take “TTACGAAAAAACAAGAGTACATGATGTTATAAAATA [XGTACX_site1412]”: the “gcPBM binding intensity (ln)” value came to 9.76. The value for “TATTAATTATTTTACTGTACTAATAATACTTTTATT [XGTACX_site2179]” was 9.74; that for “ATTATATTTTTAAGTACACACATATAAATAAATATA [CACACA_site7682]” was 9.51.

“ATTATGTGAGGTAACTAAATATGTACGTAACGAAGA [CACACA_negctrl_site1400]”: the “gcPBM binding intensity (ln)” value came out at 9.73. The same measure for “TAATGTATAATTAATCGTACATTAGATTGTTGTGTT [XGTACX_site52]”: 9.63. The same measure for “ATATATATATATGTGTGTACTTAAAAATATAATGCA [XGTACX_site7753]”: 10; for “ATTTCCCCAACGTGGGTGCATATATTTATGTGTGAA [GTGCAC_site9439]”: 9.64; for “TTTAGAGAAGTCAAGTGTACATATAAAATAATTCAC [XGTACX_site4997]”: 9.53. Regarding “ATAAAAATAAATAAATTATATAAATGTAATATGAAA [GTGCAC_negctrl_site663]”, the “gcPBM binding intensity (ln)” value came to 9.78. Consider “AAAAAAAAATATATATGTACATATGTATAATAAAAA [XGTACX_site2110]”, for which the “gcPBM binding intensity (ln)” value amounted to 9.82. The value for “AATGAAGACTTTTTTACACACTTCATATATTATATA [CACACA_site2034]” was 9.72; that for “TATTTATTTATATATGCATGCTAATAATTATAACAT [TGCATGCA_site988]” was 9.65. The same measure for “ACCTATGTATATTATACACACTCCAAACTATTCTTT [CACACA_site6939]”: 9.95. As for “ATATTATATAACTTTTGTACGAACTATTTTATATAT [XGTACX_site6]”, the “gcPBM binding intensity (ln)” value amounted to 10. The value for “TAAAGTGTCAAATTCACACACATATATATATATATA [CACACA_site1380]” was 9.99; that for “TTTTTTTTTGTTAGTTGTACGTTAAATGAATTTACT [XGTACX_site7675]” was 9.65. The value for “TAAATTAGAATAAATACACACAAATTAGAATTCTAT [CACACA_site7781]” was 9.77. The value for “GTATAATTGGAAATTACACACCTTATAATGTAACAT [CACACA_site6091]” was 9.73; that for “AATGATTTTAAAAAATGTACTTTATAAACAAAATTA [XGTACX_site3803]” was 9.45; that for CATGAATATTTTAATGTGCACATTTATCATTATATG was 9.86. For the sequence “ATATTTTCAGTTCTCCATTATGTTCCCATTATTTTT [CACACA_negctrl_site990]”, the “gcPBM binding intensity (ln)” value was determined as 9.94.

As for “CCAAACTAAATGTACACACATACATAAATATAAATA [CACACA_site1141]”, the “gcPBM binding intensity (ln)” value came out at 9.96. For “ATGTAATAAATATACACACACAAATATATATATATA [CACACA_site2395]”, the “gcPBM binding intensity (ln)” value stood at 10.7. The value for “ATATATATATATATATGGTAAAGTAAAAGGAAATAC [XGTACX_negctrl_site45]” was 10.2. The value for “GAATAATCTAGAAACACACAAACACGACAAAAGAAA [CACACA_site4135]” was 10.2; that for “TACTAACTTTTTAAAAGTACAGAACCATAACCATAA [XGTACX_site7182]” was 9.61; that for “AGTTTATATTATTAAAGTACATATATATATTCTTAA [XGTACX_site3164]” was 9.51. The value for “AGTCGAATGATGTACACACATACAAAACATTTATGC [CACACA_site4022]” was 9.94; that for “ATCATGTTATATATATGTACTAATAATATAATATAA [XGTACX_site1326]” was 9.51; that for “AGTATATTAATATAATGTACAAACGTTTATTTTGTA [XGTACX_site5980]” was 9.79. Turning to “GTTTAAAATCTTTGCACACATATAAATAAATATATT [CACACA_site2555]”, the “gcPBM binding intensity (ln)” value was 9.77. The value for “GAAAAGTAGACAATATGTACATATAGTATTTATAAA [XGTACX_site878]” was 10; that for “AGCAACCCCCTAGCTACACACATATAGATATAAATA [CACACA_site6577]” was 10.6. For “AAATATCTACATATTTGTACATATTTATACATATTT [XGTACX_site6300]”, the “gcPBM binding intensity (ln)” value is 9.82. “TATATATTATAAAAGAGTACAGAAAGAAAAAAAAAT [XGTACX_site8305]”: the “gcPBM binding intensity (ln)” value stood at 9.74.

Turning to “ATATTCAATATATTATGTACACATATATGAGGATAT [XGTACX_site7019]”, the “gcPBM binding intensity (ln)” value is 9.75. The same measure for “AAACTTTTTTTAAAAACACACATATATATTTATATA [CACACA_site4092]”: 9.79. The same measure for “ATAATGTTTCTTTCAACACACAAAAAATGAACCCAT [CACACA_site4947]”: 10; for “TATTTATAAAAAAAATGTACATTTATGTATAAGCTA [XGTACX_site3266]”: 9.55; for “TAAAAAAGTTATATTACACACTTTATTGGTTAACTT [CACACA_site653]”: 9.71. The value for “ACATATAAATTATATACACACAATAATATATATATA [CACACA_site1384]” was 9.85. For “TATATATAGAAACACACACACACATATATATATATA [CACACA_site4116]”, the “gcPBM binding intensity (ln)” value amounted to 10.3. The same measure for “AAAATTTAATATAATGCACACATAAAAAAAAAATCA [CACACA_site7882]”: 9.79; for “AATATCAATATTATATGTACTTATAATTTCAATGTA [XGTACX_site2423]”: 9.59. The same measure for “TAAATTTATTAATCAAGTACAAAATAAATTTTTATA [XGTACX_site2745]”: 9.26. The same measure for “ATATATTTTTAATTTGCATGTAGTAAAGCCTTAAAT [TGCATGCA_site593]”: 9.44; for “CATCAAGTGAATTGTTGTACTTTACATTGTTTTTAT [XGTACX_site7261]”: 10.2. As for “TATAAATTTTGTTTAGCACACACACCGACATACATA [CACACA_site9033]”, the “gcPBM binding intensity (ln)” value was 10.6.
